# Some of the results follow.
# B1: B1257 (Bifidobacterium sp) (protein)
# chain: MKKSIRLVAAIAALAMTAGISACGSSTNGNQAKSDVTAQDVETALTDTSKNVELTVWAYSAKQMEPTVKAFEKKYPHIKINFVNTGAAGDHFTKFQNVVQAQKDIPDVVQMGANKFQQFAVSGALLNFANDSIEKAWSKLYTKTAWAQVHYAGGLYGAPQDATPLANYVRKDILDEHNLQVPESWEDIYNEGIKLHKEDSNKYMGILGSDISFFTNLYRSVGARLWKVNSVDDVELTMNSGKAKEFTEFLQKCLKDGVLEGGTVFTDEFNRSINDGRYATFINENWMGNTYKEQNPSLKGKMVVAAPPSWKGQPYQSSSVGSMMSVSAACPKEKQAAALAFINWLDSDKDAIQSWQDTNNGNFFMAASVYQDDENQRNKKETDGYYANDDVNAVYFDSMDKVNTDWEYLPFMSQVEVVFNDVIVPQMNENGDLVGAMAKAQQELKTYAKDNGFKVTTDAD
# What was measured:
# Assay in all cases: glycan array binding signal (z-score within array); higher = stronger binding
# Conditions in all cases: glycan notation: IUPAC condensed, linker removed
# [1] = molecular target: GlcNAc(a1-4)Gal(b1-3)GlcNAc
# In short: (§1)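 The Consortium for Functional Glycomics database supplied 3228 glycan arrays, of which those lacking an available protein sequence were dropped. The binding signal, a within-array Z-score, was averaged across arrays of the same protein sequence and across linkers. Negative scores can be read as non-binding.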
# [2] = molecular target: GlcNAc(a1-4)Gal(b1-4)GalNAc
# In short: as §1
# [3] = molecular target: GlcNAc(a1-4)Gal(b1-4)GlcNAc
# In short: as §1
# [4] = molecular target: GlcNAc(a1-4)Gal(b1-4)GlcNAc(b1-3)Gal(b1-4)Glc
# In short: as §1
# [5] = molecular target: GlcNAc(a1-4)Gal(b1-4)GlcNAc(b1-3)Gal(b1-4)GlcNAc
# In short: as §1
# [6] = molecular target: GlcNAc(a1-4)Gal(b1-4)GlcNAc(b1-3)Gal(b1-4)GlcNAc(b1-3)Gal(b1-4)GlcNAc
# In short: as §1
# [7] = molecular target: GlcNAc(a1-4)Gal(b1-4)GlcNAc(b1-3)Gal(b1-4)[Fuc(a1-3)]GlcNAc(b1-3)Gal(b1-4)[Fuc(a1-3)]GlcNAc
# In short: as §1
# [8] = molecular target: GlcNAc(a1-6)Gal(b1-4)GlcNAc
# In short: as §1
# [9] = molecular target: GlcNAc(b1-2)Gal(b1-3)GalNAc
# In short: as §1
# [10] = molecular target: GlcNAc(b1-2)Man(a1-3)[GlcNAc(b1-2)Man(a1-6)]Man(b1-4)GlcNAc(b1-4)GlcNAc
# In short: as §1
# [11] = molecular target: GlcNAc(b1-2)Man(a1-3)[GlcNAc(b1-2)Man(a1-6)]Man(b1-4)GlcNAc(b1-4)[Fuc(a1-6)]GlcNAc
# In short: as §1
# [12] = molecular target: GlcNAc(b1-2)Man(a1-3)[GlcNAc(b1-4)][GlcNAc(b1-2)Man(a1-6)]Man(b1-4)GlcNAc(b1-4)GlcNAc
# In short: as §1
# [13] = molecular target: GlcNAc(b1-2)Man(a1-3)[GlcNAc(b1-4)][GlcNAc(b1-2)Man(a1-6)]Man(b1-4)GlcNAc(b1-4)[Fuc(a1-6)]GlcNAc
# In short: as §1
# [14] = molecular target: GlcNAc(b1-2)[GlcNAc(b1-4)]Man(a1-3)[GlcNAc(b1-2)Man(a1-6)]Man(b1-4)GlcNAc(b1-4)GlcNAc
# In short: as §1
# [15] = molecular target: GlcNAc(b1-2)[GlcNAc(b1-4)]Man(a1-3)[GlcNAc(b1-4)][GlcNAc(b1-2)Man(a1-6)]Man(b1-4)GlcNAc(b1-4)GlcNAc
# In short: as §1
# [16] = molecular target: GlcNAc(b1-2)[GlcNAc(b1-4)]Man(a1-3)[GlcNAc(b1-4)][GlcNAc(b1-2)[GlcNAc(b1-6)]Man(a1-6)]Man(b1-4)GlcNAc(b1-4)GlcNAc
# In short: as §1
# [17] = molecular target: GlcNAc(b1-2)[GlcNAc(b1-4)]Man(a1-3)[GlcNAc(b1-4)][GlcNAc(b1-2)[GlcNAc(b1-6)]Man(a1-6)]Man(b1-4)GlcNAc(b1-4)[Fuc(a1-6)]GlcNAc
# In short: as §1
# [18] = molecular target: GlcNAc(b1-2)[GlcNAc(b1-6)]Man(a1-6)[GlcNAc(b1-2)Man(a1-3)]Man(b1-4)GlcNAc(b1-4)GlcNAc
# In short: as §1
# [19] = molecular target: GlcNAc(b1-2)[GlcNAc(b1-6)]Man(a1-6)[GlcNAc(b1-2)Man(a1-3)]Man(b1-4)GlcNAc(b1-4)[Fuc(a1-6)]GlcNAc
# In short: as §1
binder,measurement,setting,value
B1,glycan array binding signal (z-score),[1],-0.103
same,glycan array binding signal (z-score),[2],-0.106
same,glycan array binding signal (z-score),[3],-0.155
same,glycan array binding signal (z-score),[4],-0.254
same,glycan array binding signal (z-score),[5],-0.007
same,glycan array binding signal (z-score),[6],-0.063
same,glycan array binding signal (z-score),[7],0.11
same,glycan array binding signal (z-score),[8],-0.043
same,glycan array binding signal (z-score),[9],-0.098
same,glycan array binding signal (z-score),[10],-0.081
same,glycan array binding signal (z-score),[11],-0.09
same,glycan array binding signal (z-score),[12],0.002
same,glycan array binding signal (z-score),[13],-0.052
same,glycan array binding signal (z-score),[14],-0.137
same,glycan array binding signal (z-score),[15],-0.186
same,glycan array binding signal (z-score),[16],-0.123
same,glycan array binding signal (z-score),[17],-0.159
same,glycan array binding signal (z-score),[18],0.069
same,glycan array binding signal (z-score),[19],-0.035

# Reference: the supplement of paper PMC8728848
